Measured values: PubChem BioAssay AID1508642 (National Center for Advancing Translational Sciences (NCATS), 2021)
Hit rate of the full screen: of about 43,000 compounds, about 200 (0.47%) were called active. The inconclusive results got no clear call from the source; some entries with a clear call stand among them for comparison. The call rests on the fitted dose curve; in most records, active means well fitted cell-killing curve with a large enough effect; inconclusive means small, poorly fitted or top-dose-only effect, or effect the other way; inactive means flat fitted curve, though single readings scatter. A potency beside an inconclusive call is a rough fit, not a confirmed value.

assay: Cell viability qHTS assay in S16 Pmp22-F2sN cells; details: S16 Pmp22-F2sN Schwann cells (luciferase reporters placed in the Pmp22 gene) viability, CellTiter-Glo, 24 h; activity change, negative = cytotoxicity: at 57.5 µM (top of the series); further: nearly all actives have a fitted effect of over 65% in size
How it was run: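 Rat S16 Schwann reporter line, 24 h treatment with library compounds delivered at 23 nL per well. Cell viability by CellTiter-Glo luminescence.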
On the % scale 0 is the no-effect control and ±100 the full control effect; potency means the concentration at half of the fitted maximal effect; tags describe the fitted curve by direction and shape.

| SMILES | Potency | activity change, negative = cytotoxicity |
| --- | --- | --- |
| COc1ccccc1Nc1nc(-c2ccccc2F)nc2ccccc12 | inconclusive: 2.82 µM [cytotoxic, full curve] | – |
| Cc1cc(C)n(-c2nnc(Nc3ccc(C)c(C)c3)c3ccccc23)n1 | inconclusive: 39.8 µM [cytotoxic, partial curve, poor fit] | – |
| CN(c1ccccc1)S(=O)(=O)c1ccc(NC(=O)c2nc(S(C)(=O)=O)ncc2Cl)cc1 | active: 4.47 µM | – |
| COc1ccc(NC(=O)c2sc3nc4c(cc3c2N)CN(Cc2ccccc2)CC4)c(OC)c1 | inconclusive: 28.2 µM [cytotoxic, single point] | – |
| COc1ccc(Cl)cc1NC(=O)c1cc2c(=O)n3ccccc3nc2s1 | – | inactive: -14.2% |
| COc1cccc2sc(N(Cc3cccnc3)C(=O)c3ccc4c(c3)OCCO4)nc12 | inconclusive: 0.0178 µM [rising, full curve, poor fit] | – |
| Cc1ccccc1S(=O)(=O)Cc1ccc(C(=O)N2CCN(c3cccc(Cl)c3)CC2)o1 | inconclusive: 22.4 µM [cytotoxic, single point] | – |
| N#Cc1ccc(-c2cccs2)nc1SCC(=O)Nc1cccc(C(F)(F)F)c1 | inconclusive: 31.6 µM [cytotoxic, single point] | – |
| CCN(CC)CCOC(=O)c1ccc(NC(=O)c2cc3c(=O)n(CC)c4ccccc4c3s2)cc1 | inconclusive: 31.6 µM [cytotoxic, single point] | – |
| COc1ccccc1C1c2c(-c3ccc(Cl)cc3)n[nH]c2C(=O)N1c1ccc(C)cc1 (stereo not drawn) | inconclusive: 39.8 µM [cytotoxic, single point] | – |
| Cc1ccc(C)c(CSc2nc3ccncc3n2Cc2nc(-c3ccccc3Cl)oc2C)c1 | inconclusive: 39.8 µM [cytotoxic, partial curve, poor fit] | – |
| COc1cc(OC)c(NC(=O)c2cc(S(=O)(=O)N3CCCC3)cn2C)cc1Cl | – | inactive: 1.12% |
| CC1CCN(c2nc3ccc(C(=O)NCc4ccc(Cl)cc4)cc3s2)CC1 | – | inactive: -7.39% |
| COc1cc(NC(=O)c2cc3nc(-c4ccccc4)cc(-c4ccccc4)n3n2)c(OC)cc1Cl | inconclusive: 39.8 µM [rising, partial curve, poor fit] | – |
| Cn1cc(C(=O)NCc2ccccc2)c(=O)c2cc(S(=O)(=O)N3CCCCCC3)ccc21 | inconclusive: 7.08 µM [cytotoxic, partial curve] | – |
| CCOc1cc(C2c3c(oc4ccccc4c3=O)C(=O)N2Cc2ccccc2Cl)ccc1O (stereo not drawn) | – | inactive: 2.45% |
| CCc1ccc(N2C(=O)CS(=O)(=O)C23C(=O)N(Cc2ccccc2F)c2ccccc23)cc1 (stereo not drawn) | – | inactive: 3.78% |
| COc1cccc(NC(=O)C2CCN(S(=O)(=O)c3cc(-c4noc(C)n4)ccc3C)CC2)c1 | – | inactive: -21.2% |
